The values below come from PubChem BioAssay AID488969 (Vanderbilt High Throughput Screening Facility, 2010).

In all, about 110,000 compounds were measured (“z-score”: median about -0.1, highest 2% from about 2 on). This is one part of the list. Active and inactive are the calls of the source.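 The calls were made as follows: active = z-score in the third read window above 3 or below -3; inactive = the rest.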

This experiment concerns the target Metabotropic glutamate receptor 8 (Rattus norvegicus) (UniProt P70579). Briefly: mGluR8 Gi/Go-coupled signaling modulation – cell-based, rat, thallium flux, HTS, primary screen (AID 488969). The following applies: HEK293 rat mGluR8, GIRK (G protein-gated inwardly rectifying potassium channel) thallium flux, FluoZin2; at 10 µM; stronger effect = higher value; submaximal glutamate (EC20) added with thallium.
Sequence of UniProt P70579 (P70579 whole entry, looked up): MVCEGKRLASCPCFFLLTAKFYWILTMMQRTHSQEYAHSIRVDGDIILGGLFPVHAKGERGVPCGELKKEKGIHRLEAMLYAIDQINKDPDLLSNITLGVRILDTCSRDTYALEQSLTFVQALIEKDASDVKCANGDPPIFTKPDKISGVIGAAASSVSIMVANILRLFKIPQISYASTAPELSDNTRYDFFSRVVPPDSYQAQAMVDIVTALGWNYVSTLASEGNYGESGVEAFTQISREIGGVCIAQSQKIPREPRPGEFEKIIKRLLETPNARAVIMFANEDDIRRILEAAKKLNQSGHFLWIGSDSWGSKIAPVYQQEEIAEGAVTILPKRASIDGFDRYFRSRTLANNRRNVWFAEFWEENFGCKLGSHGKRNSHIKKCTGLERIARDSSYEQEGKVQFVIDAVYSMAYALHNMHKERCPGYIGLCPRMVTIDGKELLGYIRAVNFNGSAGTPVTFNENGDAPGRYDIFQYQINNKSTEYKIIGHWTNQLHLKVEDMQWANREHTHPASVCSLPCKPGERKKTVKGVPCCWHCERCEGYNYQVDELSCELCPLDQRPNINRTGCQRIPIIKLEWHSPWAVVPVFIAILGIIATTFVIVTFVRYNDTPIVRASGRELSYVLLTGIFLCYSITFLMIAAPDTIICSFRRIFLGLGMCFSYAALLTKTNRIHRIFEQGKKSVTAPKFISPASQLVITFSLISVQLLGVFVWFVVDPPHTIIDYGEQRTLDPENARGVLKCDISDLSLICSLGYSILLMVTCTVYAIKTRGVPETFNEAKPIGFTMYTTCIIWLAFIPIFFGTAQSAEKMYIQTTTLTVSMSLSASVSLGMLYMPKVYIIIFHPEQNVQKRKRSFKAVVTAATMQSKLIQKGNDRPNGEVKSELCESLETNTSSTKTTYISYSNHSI
Regarding `O=C(N/N=C/c1ccc(Sc2ccccn2)o1)c1cc2ccccc2cc1O`, the z-score was active: 6.43.

Turning to `Nc1ncnc(Sc2ccc(Cl)cc2)c1[N+](=O)[O-]`, the z-score stood at 0.133. Regarding `Cc1nnc(SCC(=O)Nc2nc3ccccc3s2)n(N)c1=O`, the z-score was found to be 0.179.

With `COc1ccc(C(=O)OCC(=O)c2ccccc2)cc1S(=O)(=O)N1CCOCC1`, the z-score is -0.592. The value for `c1ccc(OCCn2cnc3ccccc32)cc1` was -0.206. In the case of `COc1ccc(CN(C)CC(=O)Nc2ccccc2C(F)(F)F)c(OC)c1`, the z-score was -0.0562. The value for `Cc1nn(-c2cccc(Cl)c2)c(Cl)c1/C=N/NC(=O)c1cccnc1` was -0.354; that for `COCCCNC(=O)CS(=O)Cc1nc(-c2ccccc2C)oc1C` (configuration not stated) was -0.567. On to `Nc1ccc(-c2n[nH]c(=O)c3ccccc23)cc1N`, for which the z-score was -0.12. Under `CCCC(CCC(=O)NC1CCCCC1)C(=O)O` (configuration not stated) stands -0.0489; under `COc1cccc(S(=O)(=O)NCc2ccc(C(=O)Nc3ccc(Cl)c(Cl)c3)cc2)c1`, -0.285. For `COc1ccc(-c2nc3ccc([N+](=O)[O-])cc3o2)cc1`, the z-score was 0.114. Under `CCCC(=O)N(c1ccc2oc(=O)sc2c1)S(=O)(=O)c1cccs1` stands 0.627; under `CCOc1ccc(C2/C(=C(/O)c3ccc(OC)cc3)C(=O)C(=O)N2c2cc(C)on2)cc1OC` (configuration not stated), -0.315; under `O=C1CCc2cc(S(=O)(=O)N3CCC(C(=O)NC4CCCCCCC4)CC3)ccc2N1`, -0.173.

As to `COc1ccc(CCNC(=O)CCNC(=O)c2ccc(Br)cc2)cc1OC`, the z-score was -0.112. Turning to `CCCc1oc(C(=O)O)cc1CN`, the z-score was -0.0602. On to `Cc1nn(C)cc1/C=N\NC(=O)Cc1ccc([N+](=O)[O-])cc1`, for which the z-score is 0.136. Take `C#CCSc1nnc(-c2sc(-c3ccccc3)nc2C)n1C`: the z-score is -0.129. On to `CC(=O)Nc1cccc(C(=O)Nc2ccccc2N2CCOCC2)c1`, for which the z-score was -0.0816.

For the molecule `COc1ccc(C2=C(Nc3ccccc3)c3ccccc3C2=O)cc1`, the z-score is -0.143. In the case of `O=C(CN1C(=O)CCSc2ccccc21)Nc1ccc2c(c1)OCCO2`, the z-score is -0.0786.

Take `C=CCn1c(CNC(=O)c2cccs2)n[nH]c1=S`: the z-score is -0.133. As for `CCC(Sc1ncccc1C(=O)OC(C)C)C(=O)N1CCOCC1` (configuration not stated), the z-score is -0.0295. The value for `CCCCC1=NN(C(=O)c2cocc2C)C(O)(C(F)(F)F)C1` (configuration not stated) was 0.0885. Regarding `COc1ccc(Cc2nnc(SCc3nc4ccccc4c(=O)[nH]3)n2C)cc1`, the z-score was found to be 0.419.

Take `O=c1c2ccccc2ncn1CCCOc1ccccc1[N+](=O)[O-]`: the z-score is -0.198. Consider `CC1CC(C)CN(CC(=O)N2c3ccccc3CCc3ccccc32)C1` (configuration not stated), for which the z-score was 0.434. Under `COc1ccc(C(=O)/C=C/c2cn(CN3CCN(C)CC3)c3ccccc23)cc1` stands -0.629; under `O=C(CC1CCCC1)NCCc1cn2ccccc2n1`, -0.194; under `CSc1nc(-c2ccccc2)nn1C(=O)c1ccco1`, -0.179. Under `O=C(Nc1ccn(Cc2ccc(Cl)cc2)n1)c1ccc2c(c1)OCO2` stands -0.0622; under `COc1ccc(NC(=O)c2sc(NC(=O)COc3ccccc3)nc2C)cc1`, 0.0267; under `CN(C)c1ccc(/C=N/N2C(=N)N(c3ccccc3)C(=S)C2=Nc2ccccc2)cc1`, 0.219. The value for `COc1ccc(CCNc2oc(COc3ccccc3F)nc2C#N)cc1` was -1.13; that for `CCc1ccc(C2CC(=O)N3CN(c4ccccc4)CSC3=C2C#N)cc1` (configuration not stated) was -0.525; that for `Cn1nnc(-c2ccc(OCc3ccccc3F)cc2)n1` was -0.0311. For `Cc1cc(C(=O)Nc2sc3c(c2C#N)CCC(C)C3)no1` (configuration not stated), the z-score stood at 0.635. For the molecule `CN(C)c1ccc(C(=S)N2CCNCC2)cc1`, the z-score was -0.0686. In the case of `COc1ccc2c(c1)[nH]c1c(=O)n(CCC3=CCCCC3)cnc12`, the z-score is -0.212.

For `N/C(CN1CCCC1=O)=N\OC(=O)c1ccc(Cl)cc1`, the z-score came to 0.084.

Consider `NC(=O)C1(N2CCCCC2)CCN(c2nc(-c3ccc(Br)cc3)cs2)CC1`, for which the z-score is -0.17.

For the molecule `Cc1ccc(NC(=O)CCC(=O)N/N=C/c2cc([N+](=O)[O-])ccc2O)cc1`, the z-score is -0.0674. On to `COCc1nnc(NC(=O)c2sc3ccccc3c2Cl)s1`, for which the z-score amounted to 0.223. As for `Cc1cc(=O)[nH]c(N/N=C/c2ccco2)n1`, the z-score is -0.115. `O=C(CN1C(=O)NC2(CCc3ccccc3C2)C1=O)Nc1ccc(Cl)cc1F` (configuration not stated): the z-score was -0.119. For the molecule `O=C(Nc1ccc2c(c1)OCO2)Nc1ccc(Br)cn1`, the z-score was -0.234. The value for `COc1cc(C(=O)Oc2cc(C)cc(C)c2)cc(OC)c1OC` was -0.106; that for `NC(=O)CSc1nc2ccccc2n1Cc1ccccc1F` was -0.701. Under `CCCC(=O)NC(=S)Nc1ccc(S(=O)(=O)Nc2ccc(OCC)cc2)cc1` stands -0.292; under `COc1ccc(N2C(=O)CC(Nc3ccc(C)cc3)C2=O)cc1` (configuration not stated), -0.557; under `COc1ccc(CNC(=O)c2c(C)nc3ccccn23)cc1`, -0.0334. Under `CC(C)On1c(SC(C)C)nc2ccccc2c1=O` stands -0.921. As for `CCCCSc1ccc(NC(=O)c2cccnc2)cc1`, the z-score was -0.00962. The value for `COc1ccc(NC(=S)NCCC(c2ccccc2)c2ccccc2)c(OC)c1` was -0.011; that for `O=C(Cn1c(=O)oc2ccccc21)Nc1nc(-c2ccccc2)cs1` was -0.0638; that for `O=C(NC1CCCCCC1)c1ccc2c(=O)n3c(nc2c1)CCCCC3` was 0.502. The value for `O=c1[nH]cnc2c1c(-c1ccccc1)cn2-c1ccc(F)cc1` was -0.295.

On to `O=C(OCc1c(Cl)cccc1Cl)c1cnccn1`, for which the z-score was found to be 0.418.

Turning to `COc1ccccc1Nc1nc(N)nc(CN2CCc3ccccc3C2)n1`, the z-score was -0.385.

On to `Cc1cc(NC(=O)c2cccs2)n(-c2ccccc2)n1`, for which the z-score was -0.267. `COc1ccc(NC(=O)Cc2coc3ccc4ccccc4c23)cc1S(=O)(=O)N1CCOCC1` yielded a z-score of 0.493. The value for `N#CC(C#N)=C1NC2(CCCC2)Cc2ccccc21` was -0.252; that for `CCc1cc([N+](=O)[O-])cc(CC)c1N` was -0.408. Under `CC(C)c1ccc(NC(=O)COC(=O)COc2ccccc2)cc1` stands -0.24.

For `CCCOc1ccc(C(=O)N/N=C/c2ccc(-c3ccc(S(=O)(=O)Nc4ncccn4)cc3)o2)cc1`, the z-score was -0.447. Consider `CCCCOc1ccc(C(=O)N2CCC(C)CC2)cc1`, for which the z-score is -0.401.

In turn, `O=C(Nc1ccccc1)c1ccc(CSc2ncccn2)cc1` came in with a z-score of 0.0416. In turn, `CS(=O)c1ccccc1-c1nc(-c2cc(C(F)(F)F)cc(C(F)(F)F)c2)no1` (configuration not stated) showed a z-score of 0.148.

As for `Cc1ccc(NC(=O)NC2CCCN2S(=O)(=O)c2ccc(Cl)cc2)cc1` (configuration not stated), the z-score is -0.69. Under `CC(C)CNC(=O)C(=O)NC1CCCC1` stands -0.0648; under `CCOC(=O)c1oc2ccccc2c1NC(=O)c1ccc(S(=O)(=O)N2CCCC2)cc1`, -0.0924; under `Cc1nnc(NC(=O)c2ccc(S(=O)(=O)N(C)Cc3ccccc3)cc2)o1`, 0.37. On to `N#Cc1ccc(CSc2nnc(Nc3ccccc3)s2)cc1`, for which the z-score was found to be 1.18. With `COc1cccc(C2CC(C(F)(F)F)n3ncc(C(=O)NCC4CCCO4)c3N2)c1` (configuration not stated), the z-score is -0.341. On to `Cc1ccc(CNC(=O)Cn2c(=O)c3sccc3n(Cc3cccc([N+](=O)[O-])c3)c2=O)cc1`, for which the z-score is -0.301. As to `O=c1nc2s/c(=C\c3ccc(-c4ccccc4[N+](=O)[O-])o3)c(=O)n2nc1-c1ccccc1`, the z-score was determined as 0.305.

On to `Cn1c(=O)c2nc(Cl)c(-c3ccccc3)nc2n(C)c1=O`, for which the z-score is -0.327. Consider `c1ccc(-c2ccc(OCCOCCn3cncn3)cc2)cc1`, for which the z-score was determined as 0.335.

Regarding `Oc1c(Br)cc(Br)cc1C=Nc1ccc2c(c1)OCO2`, the z-score is -0.769.

For `CC(=O)Oc1ccc2c(C)cc(=O)oc2c1C(=O)c1ccccc1`, the z-score is -0.483. `C=CCOc1c(Br)cc(CNc2ccc(NC(=O)C(C)C)c(OC)c2)cc1OC`: the z-score is -0.274. `CC(C)c1ccc(/C=C/C(=O)N2CCc3ccccc3C2)cc1`: the z-score was -0.0752.

Turning to `COc1ccc(-c2nn3c(-c4ccccc4)nnc3s2)cc1`, the z-score is -1.28. For the molecule `CC(Cl)C(=O)Nc1ncc(C(F)(F)F)cc1Cl` (configuration not stated), the z-score is -0.166. For `O=C(NCC(c1cccs1)N1CCOCC1)c1cc([N+](=O)[O-])cc([N+](=O)[O-])c1` (configuration not stated), the z-score was -0.338. The molecule `O=C(CSCc1cccc(Br)c1)NC1CC1` registered a z-score of 0.485. On to `Cc1noc(C)c1S(=O)(=O)N1CCC(C(=O)NC2CCN(Cc3ccccc3)CC2)CC1`, for which the z-score was -0.163. Molecule `CSCCC(NS(=O)(=O)c1ccc(Cl)cc1)C(=O)OCc1cccc(Cl)c1` (configuration not stated) gave a z-score of 0.421. As to `CC(C)[C@H](NS(=O)(=O)c1ccc2c(c1)OCCO2)C(=O)OCC(=O)Nc1ccccc1Cl`, the z-score is -0.251. Molecule `Cc1ccc(S(=O)(=O)N2CCOCC2)cc1C(=O)NCc1cccnc1` had a z-score of 0.156. The value for `Cc1cc(C)nc(N/N=C/c2ccccc2OCc2ccc([N+](=O)[O-])cc2)n1` was 0.257; that for `Cc1ccc(C(=O)CSc2nc(C)cc(C)c2C(N)=O)cc1` was 0.0818; that for `CC1(C)CC(=O)C2=C(C1)OC(N)=C([N+](=O)[O-])C2c1cccs1` (configuration not stated) was -0.0878. Under `O=C1C(Cl)=C(NCC2CCCO2)C(=O)N1c1cccc(Cl)c1Cl` (configuration not stated) stands -0.317; under `CC(=O)c1cccc(NC(=O)c2cc(-n3cnnc3)ccc2Cl)c1`, -0.0767; under `COc1ccc(CN2CCOCC2)cc1OC`, 0.117. Turning to `CCNS(=O)(=O)c1c(C)cc(N2CCCC2=O)cc1C`, the z-score is -0.237. For the molecule `O=c1c(Cc2ccc(F)cc2)c(O)ccn1C1CC1`, the z-score was -0.00693. For `CCN(CC)c1ccc(/C=N/Nc2ccccc2)c(O)c1`, the z-score is 0.14. In the case of `O=C(Cc1ccccc1)NC(=S)Nc1ccc(N2CCCCC2)cc1`, the z-score worked out at 0.136. The value for `O=C(Oc1coc(CSc2nnc(NC(=O)c3cccs3)s2)cc1=O)c1ccccc1` was -0.179; that for `COc1cc(C(=O)Nc2nc(-c3ccc(C)cc3)cs2)ccc1OCC(=O)N1CCOCC1` was 0.392. The value for `O=C(Nc1ccccc1C(F)(F)F)N1CCC(n2c(=O)[nH]c3ccccc32)CC1` was 0.115.

Take `c1ccc2c(c1)ccc1nnc(SCc3ccc4c(c3)OCCO4)n12`: the z-score is -0.397. The value for `N#Cc1nc(COc2ccc(Cl)cc2)oc1NCc1ccc2c(c1)OCO2` was -0.0603; that for `CCOC(=O)c1ccc2[nH]c(C)c(C)c2c1` was 0.637. Under `Cc1ccsc1-c1n[nH]c(=S)n1C1CCCCC1` stands 0.261. Under `CN(NC(=O)c1ccc(Cl)cc1)c1cccc(Cl)n1` stands -0.0482; under `O=C(Nc1cccc(Cl)c1)N(Cc1nc2ccccc2c(=O)[nH]1)C1CCCC1`, -0.529; under `Oc1c(C(c2ccco2)N2CCN(C(c3ccccc3)c3ccccc3)CC2)sc2ncnn12` (configuration not stated), -0.33.

In the case of `COc1ccc(S(=O)(=O)NC(C)C(=O)Nc2cccc(C(C)=O)c2)cc1` (configuration not stated), the z-score was determined as 0.4.
